From PMC9605988, “Juxtaposition of Bub1 and Cdc20 on phosphorylated Mad1 during catalytic mitotic checkpoint complex assembly” (Nature Communications, 2022)
Positions count from the first letter of the chain named. These are yes or no findings as the source states them, for the method shown. Some entries that bind do so weakly or less than the wild type. One block for each molecule: values may come before it.

Legend:
[1] = molecular target: T1, Mad1^CTD R617E/K619D mutant (UniProt Q9Y6D9); assay: SEC-MALS; Superdex 75 or Superdex 200 Increase 10/300 GL, 0.5 ml/min; about 100 μl at ~3.0 mg/ml; Mad1^CTD dimer to Cdc20^N 1:1.2; proteins also run alone; both purified
T1 sequence: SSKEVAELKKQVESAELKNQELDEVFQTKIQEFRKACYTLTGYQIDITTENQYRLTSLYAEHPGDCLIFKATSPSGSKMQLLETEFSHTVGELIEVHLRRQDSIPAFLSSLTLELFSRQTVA

[2] = molecular target: T2, Mad1^CTD phosphorylated at Thr716 (pMad1^CTD) (UniProt Q9Y6D9); assay: as above
T2 sequence (chain, phosphothreonine at 716 (pThr716)): T1 sequence with E21R, D23K

[3] = molecular target: T2, Mad1^CTD phosphorylated at Thr716 (pMad1^CTD); assay: NMR titration; Cdc20 α1 or Box1 peptide titrated to 15N-labelled Mad1^CTD or pMad1^CTD; chemical shift perturbations in 1H,15N HSQC; 298 K; both purified

binding [1]: no binding (tested: ~3.0 mg/ml injected)
binding [2]: no binding (tested: ~3.0 mg/ml injected)
Molecule: Cdc20^N E7R/D9K mutant (from UniProt Q12834 1-73) (domain or fragment)

binding [1]: no binding (tested: ~3.0 mg/ml injected)
B1: Cdc20^N (N-terminal truncation of Cdc20, residues 1-73) (domain or fragment, human, UniProt Q12834 1-73, looked up)
chain: MAQFAFESDLHSLLQLDAPIPNAPPARWQRKAKEAAGPAPSPMRAANRSHSAGRTPGRTPGKSSSKVQTTPSK
notes: human Cdc20, residues 1-73; also called Cdc20^1–73; wild-type Cdc20^N; source: E. coli Rosetta 2 (DE3), purified (TALON, TEV cleavage, HisTrap, Resource S, Superdex 75); not shown: His6, N-terminal, cleaved; MBP, N-terminal, cleaved

binding [2]: no binding (tested: ~3.0 mg/ml injected)
B2: Cdc20^N RRK/SSS mutant (Arg27, Arg30, Lys31 to Ser) (domain or fragment, human, UniProt Q12834 1-73, looked up)
chain: B1 chain with R27S, R30S, K31S
notes: human Cdc20, residues 1-73; The purification (with tag cleavage) is told for Cdc20^N; likely the same for the mutant; source: site-directed mutant of the Cdc20^N construct, purified

binding [3]: binds weakly
Molecule: MAQFAFESDLHSLL [Cdc20 α1 peptide]
